{"source": "PubChem BioAssay AID504832", "about": "(National Center for Advancing Translational Sciences (NCATS), 2011)", "note": "The campaign covered roughly 310,000 compounds. About 18,000 (5.8%) were called active. Inconclusive means that the source gave no clear call. Such entries were picked first, then a sample of the others. Calls come from the whole dose curve; as a rule, active = well fitted inhibition curve with a large enough effect; inconclusive = small, poorly fitted or top-dose-only effect, or another doubt; inactive = no such curve, though single readings can be large or run the other way. No potency is given beside an inconclusive call; the fits are too rough. Potency is the fitted concentration of half-maximal effect; tags give direction and shape of the fitted curve.", "data": [{"assay": "Primary qHTS for delayed death inhibitors of the malarial parasite plastid, 48 hour incubation", "settings": "P. falciparum luciferase growth in erythrocytes; series mostly up to 28.7 µM", "how_it_was_run": "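Read-out is firefly luciferase luminescence from an integrated reporter in P. falciparum, so falling signal marks reduced parasite growth. Infected erythrocytes were at 2% hematocrit and 0.1% parasitemia (final) in Albumax-supplemented RPMI 1640.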", "values": [{"smiles": "Cc1cc(OCC(=O)NC2CC(C)(C)NC(C)(C)C2)c(C)cc1Br", "Potency": "inconclusive [inhibitor, single point]"}, {"smiles": "COc1ccc(-c2nn(C)c(=O)c3ccccc23)cc1NC(=O)Cn1nc(C)c2ccccc2c1=O", "Potency": "active: 10.4 µM"}, {"smiles": "Cc1ccc(C(=O)NC2CCCCCC2)cc1N1CCCC1=O", "Potency": "inactive"}, {"smiles": "O=C(NCCc1csc(-c2ccccc2)n1)c1ccco1", "Potency": "inconclusive [inhibitor, partial curve, poor fit]"}, {"smiles": "N#CC1=C(N)N2C(=C(C#N)C1c1ccc(Br)cc1)Nc1ccccc12", "note": "(stereo unspecified)", "Potency": "inconclusive [inhibitor, single point]"}, {"smiles": "NS(=O)(=O)c1ccc(CNC(=S)NC2CCCCC2)cc1", "Potency": "inactive"}, {"smiles": "CC1CC(C)CN(CCCNS(=O)(=O)c2ccc3c(c2)oc(=O)n3C)C1", "note": "(stereo unspecified)", "Potency": "inactive"}, {"smiles": "Cc1nc2ccccc2n1CC(O)COc1ccccc1Cl", "note": "(stereo unspecified)", "Potency": "inconclusive [inhibitor, single point]"}, {"smiles": "O=C(NCc1nnc(SCC(=O)N2CCCC2)o1)c1c(F)cccc1Cl", "Potency": "inactive"}, {"smiles": "COc1ccc(CN=C(Nc2ccccc2)SC2CC(=O)NC2=O)cc1", "note": "(stereo unspecified)", "Potency": "inconclusive [inhibitor, single point]"}, {"smiles": "COC(=O)c1cc(C)sc1NC(=O)CC1Nc2ccccc2NC1=O", "note": "(stereo unspecified)", "Potency": "inconclusive [inhibitor, single point]"}, {"smiles": "Cc1ccc(S(=O)(=O)NCC(c2ccccc2)N2CCN(CCC#N)CC2)cc1", "note": "(stereo unspecified)", "Potency": "inconclusive [inhibitor, single point]"}, {"smiles": "Cc1ccc(/C=N/NC(=S)Nc2cccc(S(=O)(=O)N(C)C)c2)o1", "Potency": "inconclusive [inhibitor, full curve, poor fit]"}, {"smiles": "O=C(CCc1ccccc1)NNC(=O)c1ccc(F)cc1", "Potency": "inconclusive [inhibitor, single point]"}, {"smiles": "OC(CN1CCN(c2ccccc2Cl)CC1)c1ccccc1", "note": "(stereo unspecified)", "Potency": "inconclusive [inhibitor, partial curve]"}, {"smiles": "Cc1ccc(C(C(=O)NC2CCCCC2)N(C(=O)CCCC(=O)Nc2ccccn2)c2ccc3c(c2)OCCO3)cc1", "note": "(stereo unspecified)", "Potency": "inconclusive [inhibitor, partial curve]"}, {"smiles": "COC(=O)[C@H]1C[C@@H](c2ccccc2)[C@H](C)C1(C)C", "Potency": "inconclusive [inhibitor, full curve, poor fit]"}, {"smiles": "CCN(CC(=O)Nc1ccc(OC)cc1)C(=O)c1ccc2[nH]c3c(c2c1)CC(C)CC3", "note": "(stereo unspecified)", "Potency": "inconclusive [inhibitor, single point]"}, {"smiles": "Clc1ccc(-c2nc3ccccn3c2CN2CCOCC2)cc1", "Potency": "inconclusive [inhibitor, single point]"}, {"smiles": "Cn1cc(-c2nc3ccccc3[nH]2)c2ccccc21", "Potency": "inconclusive [inhibitor, single point]"}, {"smiles": "O=C(CCNC(=O)c1ccc([N+](=O)[O-])cc1)NCc1ccccc1", "Potency": "inconclusive [inhibitor, partial curve, poor fit]"}, {"smiles": "C/C(=N\\Nc1ccccc1)c1cccc(N)c1", "Potency": "inactive"}, {"smiles": "Cc1cc(N2CCN(C3CCCC3)CC2)n2c(nc3ccccc32)c1C#N", "Potency": "active: 0.294 µM"}, {"smiles": "CCOP(=O)(OCC)c1nc(-c2ccc(Br)cc2)oc1N1CCCCC1", "Potency": "active: 10.4 µM"}, {"smiles": "O=C(CN1CCN(Cc2ccccc2)CC1)N1CCCc2c1c(=O)oc1ccc(O)cc21", "Potency": "active: 2.94 µM"}, {"smiles": "Brc1c(CSc2nc3ccccc3o2)nc2ncccn12", "Potency": "inactive"}, {"smiles": "Cc1nc(-c2ccc(NC(=O)/C=C\\C(=O)O)cc2)cs1", "Potency": "inactive"}, {"smiles": "CNC(=S)c1cc(C(C)(C)C)c(O)c(C(C)(C)C)c1", "Potency": "inconclusive [inhibitor, single point]"}, {"smiles": "N#CC1=C(N)C(C#N)(C#N)C(c2cccnc2)C2CC(c3ccccc3)CC=C12", "note": "(stereo unspecified)", "Potency": "inconclusive [inhibitor, single point]"}, {"smiles": "Cc1cc(C)c(S(=O)(=O)N2CCOC2CNC(=O)C(=O)NCCc2c[nH]c3ccccc23)c(C)c1", "note": "(stereo unspecified)", "Potency": "inconclusive [inhibitor, partial curve]"}, {"smiles": "COc1ccc(NC(=O)COc2ccccc2Cc2ccccc2)cc1S(N)(=O)=O", "Potency": "inconclusive [inhibitor, full curve, poor fit]"}, {"smiles": "COc1ccc(N2CCn3c2nc2c3c(=O)n(CCN3CCOCC3)c(=O)n2C)cc1", "Potency": "inactive"}, {"smiles": "Cc1c(Cl)cccc1Nc1ccccc1C(=O)O", "Potency": "inconclusive [inhibitor, single point]"}, {"smiles": "O=C(C1=C[C@@H](C2CC2)C[C@@H](OCc2ccc(CO)cc2)O1)N1CCN(Cc2ccc3c(c2)OCO3)CC1", "Potency": "inactive"}, {"smiles": "CC(C)OC(=O)C1CC(C)(O)C(=O)C(C(=O)OC(C)C)C1c1ccc([N+](=O)[O-])cc1", "note": "(stereo unspecified)", "Potency": "inconclusive [inhibitor, partial curve]"}, {"smiles": "CCOc1nc(C)ccc1-c1noc(-c2ccncc2)n1", "Potency": "inconclusive [inhibitor, single point]"}, {"smiles": "COc1ccc(/C=N/Nc2nc(-c3ccc(C)cc3)c(NC(C)=O)s2)cc1OC", "Potency": "active: 1.17 µM"}, {"smiles": "NS(=O)(=O)c1ccc(Sc2ccc3ccccc3c2)nc1", "Potency": "inactive"}, {"smiles": "CCc1c(C)nc2ncnn2c1NCc1cccs1", "Potency": "inactive"}, {"smiles": "COc1ccc(C(=O)Nc2ccc3c(c2)OCCO3)cc1S(=O)(=O)N1CCOCC1", "Potency": "inconclusive [inhibitor, single point]"}, {"smiles": "CO/N=C/C(=N\\Nc1cc(OC)cc(OC)c1)C(=O)c1ccccc1", "Potency": "inconclusive [inhibitor, single point]"}, {"smiles": "COCC(=O)Nc1nc2ccccc2s1", "Potency": "inactive"}, {"smiles": "CCC(C)NC(=O)Cn1c(COc2ccc(Cl)cc2Cl)nc2ccccc21", "note": "(stereo unspecified)", "Potency": "inactive"}, {"smiles": "CCCCn1c(N)c(N(CC)C(=O)c2cnc(C)cn2)c(=O)[nH]c1=O", "Potency": "inconclusive [inhibitor, single point]"}, {"smiles": "O=C(NC12CC3CC(CC(C3)C1)C2)c1ccc([N+](=O)[O-])o1", "Potency": "active: 5.22 µM"}, {"smiles": "CC1CC(=O)Nc2ccccc2N1S(=O)(=O)c1ccc(Br)cc1", "note": "(stereo unspecified)", "Potency": "inconclusive [inhibitor, single point]"}, {"smiles": "O=C1NCCCC1C(=O)N1CCN(C(c2ccccc2)c2ccccc2)CC1", "note": "(stereo unspecified)", "Potency": "inconclusive [inhibitor, partial curve, poor fit]"}, {"smiles": "CN(CC(=O)Nc1ccc(F)cc1)C(=O)c1cccc(NS(=O)(=O)c2ccccc2)c1", "Potency": "inactive"}, {"smiles": "CC1Cc2ccccc2N1CC(=O)NC(c1ccccc1)c1ccccc1", "note": "(stereo unspecified)", "Potency": "active: 10.4 µM"}, {"smiles": "O=C(NC1CCCCCCC1)c1ccccc1O", "Potency": "active: 11.7 µM"}, {"smiles": "C/C=C\\C(=O)Nc1cccc(C2=NOC3(C2)C[C@H](C(N)=O)N(C(=O)Cc2ccc([N+](=O)[O-])cc2)C3)c1", "note": "(stereo partly specified)", "Potency": "inconclusive [inhibitor, single point]"}, {"smiles": "FC(F)(F)c1nc2ccccc2c2nc3ccccc3n12", "Potency": "inactive"}, {"smiles": "COc1ccccc1NS(=O)(=O)c1cc(C(=O)N2CCCC2)ccc1C", "Potency": "inconclusive [inhibitor, single point]"}, {"smiles": "Cc1cc(C)n(-c2nc3ccccc3nc2N2CCN(S(=O)(=O)c3cccc(C#N)c3)CC2)n1", "Potency": "active: 4.15 µM"}, {"smiles": "COc1cc(C2NC(=O)NC(c3ccccc3)=C2C(C)=O)c(Br)cc1OCC(N)=O", "note": "(stereo unspecified)", "Potency": "inactive"}, {"smiles": "CCOC(=O)C1(CCOC)CCN(Cc2ccccc2-c2ccco2)CC1", "Potency": "inconclusive [inhibitor, partial curve, poor fit]"}, {"smiles": "CCC(C)(C)NC(=O)CN(C(=O)C(=O)Nc1ccc2c(c1)OCCO2)N1CCOCC1", "Potency": "inactive"}, {"smiles": "Oc1cc2c(cc1O)[C@@H](c1ccccc1)CNCC2", "Potency": "inconclusive [inhibitor, single point]"}, {"smiles": "O=C(NNc1nc(=O)c2cccnc2s1)c1ccccc1O", "Potency": "inconclusive [inhibitor, partial curve, poor fit]"}, {"smiles": "O=C(NC(=O)N1CCCCCC1)c1ccccc1", "Potency": "inactive"}, {"smiles": "Cc1cc(C)nc(SCC(=O)Nc2ccc(S(=O)(=O)Nc3ncccn3)cc2)n1", "Potency": "inconclusive [inhibitor, single point]"}, {"smiles": "Cc1ccc2c(CN3CCN(C(=O)c4ccco4)CC3)cc(=O)oc2c1C", "Potency": "inconclusive [inhibitor, partial curve]"}, {"smiles": "O=C(N/N=C/c1ccccn1)c1cccc(S(=O)(=O)Nc2ccccc2Cl)c1", "Potency": "inconclusive [inhibitor, single point]"}, {"smiles": "COc1ccc(CCN2C(=S)N(C)C(=O)C2CC(=O)Nc2ccc(F)cc2)cc1", "note": "(stereo unspecified)", "Potency": "inconclusive [inhibitor, partial curve, poor fit]"}, {"smiles": "CC1CC(C)CN(CCCNC(=O)C2CCN(c3ncnc4c3sc3cccc(F)c34)CC2)C1", "note": "(stereo unspecified)", "Potency": "inconclusive [inhibitor, partial curve]"}, {"smiles": "Cc1ccccc1Nc1scc(-c2ccc(Cl)cc2)[n+]1-c1ccccc1C", "Potency": "inconclusive [inhibitor, partial curve]"}, {"smiles": "CCCCN(C)C(=O)C1CCC(=O)N(c2cc(OC)c(OC)c(OC)c2)C1c1ccc(OC)cc1", "note": "(stereo unspecified)", "Potency": "inconclusive [inhibitor, single point]"}, {"smiles": "CCOC(=O)C1=C(C)Nc2ccccc2N=C1NC(=O)Cc1ccc(Cl)c(Cl)c1", "Potency": "inactive"}, {"smiles": "CCOc1cc(C#N)c(NC(=O)c2ccco2)cc1OCC", "Potency": "inactive"}, {"smiles": "COc1ccc(C(=O)N(Cc2nc(-c3ccc(C)cc3)no2)C2CCCCC2)cc1OC", "Potency": "inconclusive [inhibitor, single point]"}, {"smiles": "Fc1ccc(CN2CCN(c3ncnc4scc(-c5ccccc5)c34)CC2)cc1", "Potency": "inconclusive [inhibitor, single point]"}]}]}
